# Source: the supplement of paper PMC8728848
# The list shows a part of the results.
# Key:
# Test in all cases: glycan array binding signal (z-score within array); higher = stronger binding
# Conditions in all cases: glycan notation: IUPAC condensed, linker removed; mutation: Y228W
# [1] = target: Neu5Ac(a2-3)Gal(b1-3)GlcNAc(b1-6)GalNAc
# Outline: (§1)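 The Consortium for Functional Glycomics database supplied 3228 glycan arrays, of which those lacking an available protein sequence were dropped. The binding signal, a within-array Z-score, was averaged across arrays of the same protein sequence and across linkers. Negative scores can be read as non-binding.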
# [2] = target: Neu5Ac(a2-3)Gal(b1-3)GlcNAc6S
# Outline: as §1
# [3] = target: Neu5Ac(a2-3)Gal(b1-3)[Fuc(a1-4)]GlcNAc
# Outline: as §1
# [4] = target: Neu5Ac(a2-3)Gal(b1-3)[Fuc(a1-4)]GlcNAc(b1-3)Gal(b1-3)[Fuc(a1-4)]GlcNAc
# Outline: as §1
# [5] = target: Neu5Ac(a2-3)Gal(b1-3)[Fuc(a1-4)]GlcNAc(b1-3)Gal(b1-4)[Fuc(a1-3)]GlcNAc
# Outline: as §1
# [6] = target: Neu5Ac(a2-3)Gal(b1-3)[GlcNAc(b1-6)]GalNAc
# Outline: as §1
# [7] = target: Neu5Ac(a2-3)Gal(b1-3)[Neu5Ac(a2-6)]GalNAc
# Outline: as §1
# [8] = target: Neu5Ac(a2-3)Gal(b1-3)[Neu5Ac(a2-6)]GlcNAc(b1-3)[Fuc(a1-3)[Gal(b1-4)]GlcNAc(b1-6)]Gal(b1-4)Glc
# Outline: as §1
# [9] = target: Neu5Ac(a2-3)Gal(b1-3)]Neu5Ac(a2-3)Gal(b1-4)]GlcNAc
# Outline: as §1
# Neu5Ac(a2-3)Gal(b1-4)Glc = target: Neu5Ac(a2-3)Gal(b1-4)Glc
# Outline: as §1
# [10] = target: Neu5Ac(a2-3)Gal(b1-4)GlcNAc
# Outline: as §1
# [11] = target: Neu5Ac(a2-3)Gal(b1-4)GlcNAc(b1-2)Man
# Outline: as §1
# [12] = target: Neu5Ac(a2-3)Gal(b1-4)GlcNAc(b1-2)Man(a1-3)[GlcNAc(b1-4)][Neu5Ac(a2-3)Gal(b1-4)GlcNAc(b1-2)Man(a1-6)]Man(b1-4)GlcNAc(b1-4)GlcNAc
# Outline: as §1
# [13] = target: Neu5Ac(a2-3)Gal(b1-4)GlcNAc(b1-2)Man(a1-3)[Neu5Ac(a2-3)Gal(b1-4)GlcNAc(b1-2)Man(a1-6)]Man(b1-4)GlcNAc(b1-4)GlcNAc
# Outline: as §1
# [14] = target: Neu5Ac(a2-3)Gal(b1-4)GlcNAc(b1-2)Man(a1-3)[Neu5Ac(a2-3)Gal(b1-4)GlcNAc(b1-2)Man(a1-6)]Man(b1-4)GlcNAc(b1-4)[Fuc(a1-6)]GlcNAc
# Outline: as §1
# [15] = target: Neu5Ac(a2-3)Gal(b1-4)GlcNAc(b1-2)Man(a1-3)[Neu5Ac(a2-6)Gal(b1-4)GlcNAc(b1-2)Man(a1-6)]Man(b1-4)GlcNAc(b1-4)GlcNAc
# Outline: as §1
# [16] = target: Neu5Ac(a2-3)Gal(b1-4)GlcNAc(b1-2)[Neu5Ac(a2-3)Gal(b1-4)GlcNAc(b1-4)]Man(a1-3)[GlcNAc(b1-4)][Neu5Ac(a2-3)Gal(b1-4)GlcNAc(b1-2)[Neu5Ac(a2-3)Gal(b1-4)GlcNAc(b1-6)]Man(a1-6)]Man(b1-4)GlcNAc(b1-4)GlcNAc
# Outline: as §1
# [17] = target: Neu5Ac(a2-3)Gal(b1-4)GlcNAc(b1-2)[Neu5Ac(a2-3)Gal(b1-4)GlcNAc(b1-4)]Man(a1-3)[GlcNAc(b1-4)][Neu5Ac(a2-3)Gal(b1-4)GlcNAc(b1-4)Man(a1-6)]Man(b1-4)GlcNAc(b1-4)GlcNAc
# Outline: as §1
# [18] = target: Neu5Ac(a2-3)Gal(b1-4)GlcNAc(b1-2)[Neu5Ac(a2-3)Gal(b1-4)GlcNAc(b1-6)]Man(a1-6)[Neu5Ac(a2-3)Gal(b1-4)GlcNAc(b1-2)Man(a1-3)][GlcNAc(b1-4)]Man(b1-4)GlcNAc(b1-4)GlcNAc
# Outline: as §1
# [19] = target: Neu5Ac(a2-3)Gal(b1-4)GlcNAc(b1-3)Gal
# Outline: as §1
# [20] = target: Neu5Ac(a2-3)Gal(b1-4)GlcNAc(b1-3)Gal(b1-3)GlcNAc
# Outline: as §1
# [21] = target: Neu5Ac(a2-3)Gal(b1-4)GlcNAc(b1-3)Gal(b1-4)GlcNAc
# Outline: as §1
# [22] = target: Neu5Ac(a2-3)Gal(b1-4)GlcNAc(b1-3)Gal(b1-4)GlcNAc(b1-2)Man(a1-3)[Neu5Ac(a2-3)Gal(b1-4)GlcNAc(b1-3)Gal(b1-4)GlcNAc(b1-2)Man(a1-6)]Man(b1-4)GlcNAc(b1-4)GlcNAc
# Outline: as §1
# [23] = target: Neu5Ac(a2-3)Gal(b1-4)GlcNAc(b1-3)Gal(b1-4)GlcNAc(b1-3)Gal(b1-4)GlcNAc
# Outline: as §1
# [24] = target: Neu5Ac(a2-3)Gal(b1-4)GlcNAc(b1-3)Gal(b1-4)GlcNAc(b1-3)Gal(b1-4)GlcNAc(b1-2)Man(a1-3)[Neu5Ac(a2-3)Gal(b1-4)GlcNAc(b1-3)Gal(b1-4)GlcNAc(b1-3)Gal(b1-4)GlcNAc(b1-2)Man(a1-6)]GalNAc
# Outline: as §1
# [25] = target: Neu5Ac(a2-3)Gal(b1-4)GlcNAc(b1-3)Gal(b1-4)GlcNAc(b1-3)GalNAc
# Outline: as §1
# [26] = target: Neu5Ac(a2-3)Gal(b1-4)GlcNAc(b1-3)Gal(b1-4)GlcNAc(b1-3)[Neu5Ac(a2-3)Gal(b1-4)GlcNAc(b1-3)Gal(b1-4)GlcNAc(b1-6)]GalNAc
# Outline: as §1
# [27] = target: Neu5Ac(a2-3)Gal(b1-4)GlcNAc(b1-3)Gal(b1-4)GlcNAc(b1-6)[Gal(b1-3)]GalNAc
# Outline: as §1
# [28] = target: Neu5Ac(a2-3)Gal(b1-4)GlcNAc(b1-3)Gal(b1-4)[Fuc(a1-3)]GlcNAc
# Outline: as §1
# [29] = target: Neu5Ac(a2-3)Gal(b1-4)GlcNAc(b1-3)GalNAc
# Outline: as §1
binder,measurement,setting,value
"Epa1-NP-mutant-Y228W (Candida glabrata), Q6VBJ0 (protein) MILNPALFLNKCVCIYTTLILLLLTNGGYATSSNDISLASKDPTTFPLGCSPDITTPKKGLSMELYSYDFRKKGSYPCWDAAYLDPNYPRTGYKSHRLLAKVDGVTGNINFYYHATKGCTPQLGHLPASYNYPKPLTMTNFTMLLYGYFRPKVTGFHTFTISADDLLFVNFGAGNAFDCCRRDSSADHFGNYQAYAIWGSKTAKDELTVHLDAGVYYPIRLFYNNREWDGALSFTFKTESNENTVSDFSEYFFSLDDTEEGCPGLISYDSSCASVKTSKIIGIDYHTETPNENLVPITKTIYHLGIPCTGTTTTPLCGSGFYDPLANKCVTINTSSTSSVTKTTSHTTSKEVSFHSSISSQKTLIPKSIPSPYGPIKSQSIPTEMETSSEISSSEYAFSDVISTPSHSPYTKKHSSLNSSSYTSTVIHSLTSYSISQGIFSTSLSEQNITSKSSTDKFSTATSMSNNITQSSIIISQFSTNNENYTTTSMHTSSDKISTETLNNSISTTTSILFSNSSTILKNNTTIISSDKDTHYHPVNPTIVCSTNKTEIICASITQPSISNSNNHWSSSVLKFNSTTVRSTLPSSAGSNETSINVPFSSSTESNTSTSSTSTSNSKMVRSTLPSSAGSNETSISVPFSSSTESNTSTSSTSTSNSKMVRSTLPSSAGSNETSINVPFSSSTESNTSTSSTSTSNSKTVRSTPFSSAGIIMTSLSQRNNKSASSYASSNSKCYNTADSCRKVHSTPSYLLTSSYTSEGVDYDCSLVSTKLKINDTNCVNNKHTTKSCLKTSVTTTIPTLEIKTARKSSSNTIGLHSYPTSSPNKSISSAPIIGYISSFKTIKTASPSYQTSDLTTITTITSLNNPGSTAVENTHESNDKSRKTSSNDISSKHSVIKETKDAVESSNKSHQTNTLKCSSIIIASSSHNSYESLGGTTLTLTLSKVYSPQNNDTLPFLEISEVNPSRTVLPESSKMMQYLTSTEERNKTARNTIATNIVSISTFHFEGEGNAIRMGYTQLLLMLIGIIVMNIGT",glycan array binding signal (z-score),[1],0.035
same,glycan array binding signal (z-score),[2],-0.071
same,glycan array binding signal (z-score),[3],-0.23
same,glycan array binding signal (z-score),[4],-0.315
same,glycan array binding signal (z-score),[5],0.021
same,glycan array binding signal (z-score),[6],-0.329
same,glycan array binding signal (z-score),[7],-0.207
same,glycan array binding signal (z-score),[8],-0.102
same,glycan array binding signal (z-score),[9],-0.097
same,glycan array binding signal (z-score),Neu5Ac(a2-3)Gal(b1-4)Glc,-0.082
same,glycan array binding signal (z-score),[10],-0.201
same,glycan array binding signal (z-score),[11],-0.205
same,glycan array binding signal (z-score),[12],-0.129
same,glycan array binding signal (z-score),[13],0.026
same,glycan array binding signal (z-score),[14],0.036
same,glycan array binding signal (z-score),[15],-0.29
same,glycan array binding signal (z-score),[16],-0.37
same,glycan array binding signal (z-score),[17],-0.359
same,glycan array binding signal (z-score),[18],-0.128
same,glycan array binding signal (z-score),[19],-0.181
same,glycan array binding signal (z-score),[20],-0.125
same,glycan array binding signal (z-score),[21],-0.227
same,glycan array binding signal (z-score),[22],-0.502
same,glycan array binding signal (z-score),[23],-0.303
same,glycan array binding signal (z-score),[24],0.581
same,glycan array binding signal (z-score),[25],-0.379
same,glycan array binding signal (z-score),[26],-0.19
same,glycan array binding signal (z-score),[27],-0.529
same,glycan array binding signal (z-score),[28],-0.295
same,glycan array binding signal (z-score),[29],-0.092
